{"sequences": {"note": "Amino acid sequences for entries named in this document (tags omitted).", "UniProt Q9NQT5": "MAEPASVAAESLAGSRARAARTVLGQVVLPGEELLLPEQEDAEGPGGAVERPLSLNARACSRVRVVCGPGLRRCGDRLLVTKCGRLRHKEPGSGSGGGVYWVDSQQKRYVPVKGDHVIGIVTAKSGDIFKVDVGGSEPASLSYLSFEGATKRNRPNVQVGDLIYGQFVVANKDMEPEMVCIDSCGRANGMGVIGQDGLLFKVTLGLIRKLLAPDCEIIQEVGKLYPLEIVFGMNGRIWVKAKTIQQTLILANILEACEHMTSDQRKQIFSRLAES"}, "source": "paper PMC10164564", "key": {"[1]": {"target": "T1, WT EXOSC10 (as compared with the K583R mutant, Supplementary Figure S5D, E) (human) (UniProt Q01780)", "T1 sequence": "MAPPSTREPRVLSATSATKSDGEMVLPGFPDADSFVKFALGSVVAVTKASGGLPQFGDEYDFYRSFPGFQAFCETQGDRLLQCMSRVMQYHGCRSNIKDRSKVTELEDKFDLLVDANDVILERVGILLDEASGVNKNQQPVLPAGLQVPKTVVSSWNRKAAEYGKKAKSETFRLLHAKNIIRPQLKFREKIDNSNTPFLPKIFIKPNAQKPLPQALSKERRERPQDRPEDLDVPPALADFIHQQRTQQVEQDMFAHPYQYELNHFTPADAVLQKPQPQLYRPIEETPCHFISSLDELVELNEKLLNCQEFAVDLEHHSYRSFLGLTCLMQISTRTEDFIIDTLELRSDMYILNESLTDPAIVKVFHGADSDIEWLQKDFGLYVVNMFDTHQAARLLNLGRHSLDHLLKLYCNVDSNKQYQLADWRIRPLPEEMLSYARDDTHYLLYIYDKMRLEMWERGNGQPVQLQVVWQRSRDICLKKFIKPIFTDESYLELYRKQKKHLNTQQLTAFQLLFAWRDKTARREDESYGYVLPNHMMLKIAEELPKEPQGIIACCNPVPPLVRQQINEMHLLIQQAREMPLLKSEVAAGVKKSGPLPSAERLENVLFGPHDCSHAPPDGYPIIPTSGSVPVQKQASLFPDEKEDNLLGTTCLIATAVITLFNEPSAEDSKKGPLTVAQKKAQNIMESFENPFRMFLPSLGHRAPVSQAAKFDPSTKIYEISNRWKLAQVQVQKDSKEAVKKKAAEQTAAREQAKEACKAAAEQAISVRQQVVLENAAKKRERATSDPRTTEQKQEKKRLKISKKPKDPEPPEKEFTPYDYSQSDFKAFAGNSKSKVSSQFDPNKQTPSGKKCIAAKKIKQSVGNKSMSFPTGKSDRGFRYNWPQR", "experiment": "co-IP; WT EXOSC10 against the K583R mutant (Supplementary Figure S5D, E); antibody, tags and cells not given"}, "[2]": {"target": "T2, EXOSC10 K583R mutant (human) (UniProt Q01780)", "T2 sequence": "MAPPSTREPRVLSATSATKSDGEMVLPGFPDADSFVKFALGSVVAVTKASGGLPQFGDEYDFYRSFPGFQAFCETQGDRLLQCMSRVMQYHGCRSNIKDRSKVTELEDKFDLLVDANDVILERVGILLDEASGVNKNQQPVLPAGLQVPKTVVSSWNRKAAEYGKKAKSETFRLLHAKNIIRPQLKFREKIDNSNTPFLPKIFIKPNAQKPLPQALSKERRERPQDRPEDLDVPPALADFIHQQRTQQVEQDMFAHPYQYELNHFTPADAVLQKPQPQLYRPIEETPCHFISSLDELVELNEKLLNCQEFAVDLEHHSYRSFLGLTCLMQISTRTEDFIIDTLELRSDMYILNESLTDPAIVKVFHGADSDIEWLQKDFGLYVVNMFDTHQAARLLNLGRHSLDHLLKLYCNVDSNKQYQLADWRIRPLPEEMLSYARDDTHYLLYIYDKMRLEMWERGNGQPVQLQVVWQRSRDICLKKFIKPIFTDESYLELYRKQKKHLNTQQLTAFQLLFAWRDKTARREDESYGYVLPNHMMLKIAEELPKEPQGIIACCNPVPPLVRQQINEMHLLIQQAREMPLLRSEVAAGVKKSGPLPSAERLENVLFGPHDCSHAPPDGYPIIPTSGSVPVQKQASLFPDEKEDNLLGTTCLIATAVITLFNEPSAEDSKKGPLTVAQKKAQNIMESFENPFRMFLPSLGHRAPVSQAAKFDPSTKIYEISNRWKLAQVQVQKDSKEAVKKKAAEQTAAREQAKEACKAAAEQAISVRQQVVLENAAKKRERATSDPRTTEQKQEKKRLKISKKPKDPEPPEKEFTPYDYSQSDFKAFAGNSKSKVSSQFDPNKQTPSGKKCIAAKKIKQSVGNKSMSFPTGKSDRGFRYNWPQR", "experiment": "co-IP; WT EXOSC10 against the K583R mutant (Supplementary Figure S5D, E); antibody, tags and cells not given"}, "[3]": {"target": "T3, GST-EXOSC10 fusion protein (human) (UniProt Q01780)", "T3 sequence": "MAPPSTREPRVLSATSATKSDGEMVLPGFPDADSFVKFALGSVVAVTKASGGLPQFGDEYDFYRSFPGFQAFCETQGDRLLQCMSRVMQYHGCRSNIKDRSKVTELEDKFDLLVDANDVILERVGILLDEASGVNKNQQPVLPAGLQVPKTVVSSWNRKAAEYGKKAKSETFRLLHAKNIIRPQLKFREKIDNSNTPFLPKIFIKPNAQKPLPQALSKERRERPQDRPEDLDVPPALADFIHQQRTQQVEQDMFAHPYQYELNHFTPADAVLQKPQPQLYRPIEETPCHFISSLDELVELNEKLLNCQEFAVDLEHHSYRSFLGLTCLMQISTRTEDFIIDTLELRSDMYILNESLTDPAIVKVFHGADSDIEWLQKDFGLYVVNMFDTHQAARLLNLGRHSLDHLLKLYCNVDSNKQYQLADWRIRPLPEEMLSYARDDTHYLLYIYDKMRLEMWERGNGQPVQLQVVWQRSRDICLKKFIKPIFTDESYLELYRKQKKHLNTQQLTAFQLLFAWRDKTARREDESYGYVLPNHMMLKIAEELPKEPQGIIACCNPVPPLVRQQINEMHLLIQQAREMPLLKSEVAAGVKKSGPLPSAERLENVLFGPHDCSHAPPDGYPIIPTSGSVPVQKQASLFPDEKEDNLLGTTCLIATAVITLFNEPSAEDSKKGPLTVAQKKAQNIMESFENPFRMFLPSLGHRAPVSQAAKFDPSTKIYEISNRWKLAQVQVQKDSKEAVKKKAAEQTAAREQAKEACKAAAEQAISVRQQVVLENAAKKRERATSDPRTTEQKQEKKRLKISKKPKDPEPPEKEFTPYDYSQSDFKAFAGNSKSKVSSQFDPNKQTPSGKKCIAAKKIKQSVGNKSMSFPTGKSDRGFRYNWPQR", "experiment": "pull-down; GST fusion or GST alone (200 ng) on glutathione-Sepharose 4B beads, purified His-tagged protein (200 ng) in solution; 50 mM Tris-HCl 7.5, 5 mM MgCl2, 100 mM NaCl, 10% glycerol, 0.5 mg/ml BSA, 5 mM β-mercaptoethanol; 45 min, room temperature; immunoblot; both purified"}, "[4]": {"target": "T4, Flag-tagged full-length USP36 (wild type) (human) (UniProt Q9P275)", "T4 sequence": "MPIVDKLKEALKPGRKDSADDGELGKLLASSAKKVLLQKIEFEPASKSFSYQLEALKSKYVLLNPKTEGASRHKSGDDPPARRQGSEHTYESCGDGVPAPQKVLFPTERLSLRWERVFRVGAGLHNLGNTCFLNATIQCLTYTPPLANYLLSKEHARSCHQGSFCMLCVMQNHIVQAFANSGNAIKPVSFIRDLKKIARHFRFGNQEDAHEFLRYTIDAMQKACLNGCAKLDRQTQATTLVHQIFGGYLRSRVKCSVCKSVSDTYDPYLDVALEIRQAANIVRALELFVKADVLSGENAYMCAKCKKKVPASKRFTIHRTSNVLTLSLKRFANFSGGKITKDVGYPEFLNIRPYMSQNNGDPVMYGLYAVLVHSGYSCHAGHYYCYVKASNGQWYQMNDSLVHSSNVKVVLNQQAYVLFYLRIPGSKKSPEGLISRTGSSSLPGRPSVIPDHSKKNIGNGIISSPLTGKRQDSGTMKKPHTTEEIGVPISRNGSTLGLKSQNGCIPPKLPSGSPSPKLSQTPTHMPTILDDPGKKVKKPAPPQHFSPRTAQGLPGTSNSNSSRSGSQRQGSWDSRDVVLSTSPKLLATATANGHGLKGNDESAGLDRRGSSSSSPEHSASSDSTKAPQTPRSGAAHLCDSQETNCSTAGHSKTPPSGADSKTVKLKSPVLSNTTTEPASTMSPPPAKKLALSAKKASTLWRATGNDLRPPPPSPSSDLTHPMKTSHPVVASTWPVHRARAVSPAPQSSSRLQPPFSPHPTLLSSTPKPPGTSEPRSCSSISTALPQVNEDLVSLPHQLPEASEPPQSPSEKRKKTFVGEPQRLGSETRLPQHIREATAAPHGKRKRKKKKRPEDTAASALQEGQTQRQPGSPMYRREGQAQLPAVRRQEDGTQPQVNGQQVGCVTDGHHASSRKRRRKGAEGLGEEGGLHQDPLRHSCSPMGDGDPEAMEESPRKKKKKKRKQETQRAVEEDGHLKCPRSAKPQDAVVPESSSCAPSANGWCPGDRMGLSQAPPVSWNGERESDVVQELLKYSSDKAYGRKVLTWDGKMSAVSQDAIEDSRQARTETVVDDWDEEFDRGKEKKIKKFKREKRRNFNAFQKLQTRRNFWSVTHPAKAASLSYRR", "experiment": "co-IP; anti-Flag immunoprecipitation from lysates of transfected 293, HeLa or H1299 cells (NP-40 lysis buffer), immunoblot"}}, "note": "These are yes or no findings as the source states them, for the method shown. For some of these results: In cells and extracts the contact can be indirect. Some binding calls cover weakened binding; strength is not graded here. For some of these results: Sequences can lack the tags named with a protein."}
{"molecule": "EXOSC3/hRrp40 (from UniProt Q9NQT5 1-275)", "values": [{"measurement": "binding", "setting": "[1]", "result": "binds"}, {"measurement": "binding", "setting": "[2]", "result": "binds"}]}
{"molecule": "recombinant His-USP36 (enzyme, UniProt Q9P275 1-1123) MPIVDKLKEALKPGRKDSADDGELGKLLASSAKKVLLQKIEFEPASKSFSYQLEALKSKYVLLNPKTEGASRHKSGDDPPARRQGSEHTYESCGDGVPAPQKVLFPTERLSLRWERVFRVGAGLHNLGNTCFLNATIQCLTYTPPLANYLLSKEHARSCHQGSFCMLCVMQNHIVQAFANSGNAIKPVSFIRDLKKIARHFRFGNQEDAHEFLRYTIDAMQKACLNGCAKLDRQTQATTLVHQIFGGYLRSRVKCSVCKSVSDTYDPYLDVALEIRQAANIVRALELFVKADVLSGENAYMCAKCKKKVPASKRFTIHRTSNVLTLSLKRFANFSGGKITKDVGYPEFLNIRPYMSQNNGDPVMYGLYAVLVHSGYSCHAGHYYCYVKASNGQWYQMNDSLVHSSNVKVVLNQQAYVLFYLRIPGSKKSPEGLISRTGSSSLPGRPSVIPDHSKKNIGNGIISSPLTGKRQDSGTMKKPHTTEEIGVPISRNGSTLGLKSQNGCIPPKLPSGSPSPKLSQTPTHMPTILDDPGKKVKKPAPPQHFSPRTAQGLPGTSNSNSSRSGSQRQGSWDSRDVVLSTSPKLLATATANGHGLKGNDESAGLDRRGSSSSSPEHSASSDSTKAPQTPRSGAAHLCDSQETNCSTAGHSKTPPSGADSKTVKLKSPVLSNTTTEPASTMSPPPAKKLALSAKKASTLWRATGNDLRPPPPSPSSDLTHPMKTSHPVVASTWPVHRARAVSPAPQSSSRLQPPFSPHPTLLSSTPKPPGTSEPRSCSSISTALPQVNEDLVSLPHQLPEASEPPQSPSEKRKKTFVGEPQRLGSETRLPQHIREATAAPHGKRKRKKKKRPEDTAASALQEGQTQRQPGSPMYRREGQAQLPAVRRQEDGTQPQVNGQQVGCVTDGHHASSRKRRRKGAEGLGEEGGLHQDPLRHSCSPMGDGDPEAMEESPRKKKKKKRKQETQRAVEEDGHLKCPRSAKPQDAVVPESSSCAPSANGWCPGDRMGLSQAPPVSWNGERESDVVQELLKYSSDKAYGRKVLTWDGKMSAVSQDAIEDSRQARTETVVDDWDEEFDRGKEKKIKKFKREKRRNFNAFQKLQTRRNFWSVTHPAKAASLSYRR", "values": [{"measurement": "binding", "setting": "[3]", "result": "binds"}]}
{"molecule": "Dis3 (enzyme, UniProt Q9Y2L1 1-958) MLKSKTFLKKTRAGGVMKIVREHYLRDDIGCGAPGCAACGGAHEGPALEPQPQDPASSVCPQPHYLLPDTNVLLHQIDVLEDPAIRNVIVLQTVLQEVRNRSAPVYKRIRDVTNNQEKHFYTFTNEHHRETYVEQEQGENANDRNDRAIRVAAKWYNEHLKKMSADNQLQVIFITNDRRNKEKAIEEGIPAFTCEEYVKSLTANPELIDRLACLSEEGNEIESGKIIFSEHLPLSKLQQGIKSGTYLQGTFRASRENYLEATVWIHGDNEENKEIILQGLKHLNRAVHEDIVAVELLPKSQWVAPSSVVLHDEGQNEEDVEKEEETERMLKTAVSEKMLKPTGRVVGIIKRNWRPYCGMLSKSDIKESRRHLFTPADKRIPRIRIETRQASTLEGRRIIVAIDGWPRNSRYPNGHFVRNLGDVGEKETETEVLLLEHDVPHQPFSQAVLSFLPKMPWSITEKDMKNREDLRHLCICSVDPPGCTDIDDALHCRELENGNLEVGVHIADVSHFIRPGNALDQESARRGTTVYLCEKRIDMVPELLSSNLCSLKCDVDRLAFSCIWEMNHNAEILKTKFTKSVINSKASLTYAEAQLRIDSANMNDDITTSLRGLNKLAKILKKRRIEKGALTLSSPEVRFHMDSETHDPIDLQTKELRETNSMVEEFMLLANISVAKKIHEEFSEHALLRKHPAPPPSNYEILVKAARSRNLEIKTDTAKSLAESLDQAESPTFPYLNTLLRILATRCMMQAVYFCSGMDNDFHHYGLASPIYTHFTSPIRRYADVIVHRLLAVAIGADCTYPELTDKHKLADICKNLNFRHKMAQYAQRASVAFHTQLFFKSKGIVSEEAYILFVRKNAIVVLIPKYGLEGTVFFEEKDKPNPQLIYDDEIPSLKIEDTVFHVFDKVKVKIMLDSSNLQHQKIRMSLVEPQIPGISIPTDTSNMDLNGPKKKKMKLGK", "values": [{"measurement": "binding", "setting": "[4]", "result": "no binding"}]}
